This passage reports cytotoxicity call results from the antibiotic and cytotoxicity screens of Wong et al. (2023).

Molecules are shown by their SMILES. This is one part of the list.

The test system of this assay is HSkMC (human skeletal muscle cells). As to the kind of experiment: cytotoxicity call (relative viability < 0.9). The settings on record: 10 µM.
`O=C(C[C@H]1CC[C@H]2[C@@H](COC[C@@H](O)CN2S(=O)(=O)c2ccc(Cl)cc2)O1)NCCN1CCCC1`: the cytotoxicity call is “inactive”.
The entry for `C[C@@H]1CN([C@@H](C)CO)C(=O)c2cc(NC(=O)CCCN(C)C)ccc2O[C@@H]1CN(C)S(=O)(=O)c1ccccc1` is “inactive”.
The entry for `C[C@H](CO)N1C[C@H](C)[C@@H](CN(C)C(=O)Nc2cccc3ccccc23)Oc2ccc(NC(=O)Cc3ccccc3)cc2CC1=O` is “active”.
The entry for `O=c1ccc(=O)n(CNc2nccs2)[nH]1` is “inactive”.
Consider `CC(=O)OCC(=O)C12N=C(C)OC1CC1C3CCC4=CC(=O)C=CC4(C)C3C(O)CC12C` (configuration not stated), for which the cytotoxicity call is “inactive”.
Next, `O=C(Nc1cccc2cccnc12)[C@@H]1[C@H](c2cccc(Br)c2)CC(=O)N1C(=O)OCc1ccccc1`: “inactive”; `C[C@H](CO)N1C[C@H](C)[C@@H](CN(C)Cc2ccc(Cl)c(Cl)c2)Oc2c(NS(=O)(=O)c3ccccc3)cccc2C1=O`: “inactive”; `C[C@H]1CCCCO[C@H](CN(C)C(=O)Nc2ccc(C(F)(F)F)cc2)[C@@H](C)CN([C@@H](C)CO)C(=O)c2cc(NS(=O)(=O)c3ccc(F)cc3)ccc2O1`: “active”.
Regarding `O=C(C[C@H]1CC[C@H]2[C@@H](COC[C@@H](O)CN2S(=O)(=O)c2cccc(F)c2)O1)NCc1ccncn1`, the cytotoxicity call is “inactive”.
On to `Oc1ccc2ccccc2c1`, for which the cytotoxicity call was “inactive”.
Next, `C[C@@H]1CN([C@@H](C)CO)C(=O)c2cc(C#CCN(C)C)cnc2O[C@@H]1CN(C)C(=O)Nc1ccccc1F`: “inactive”; `COc1cccc(NC(=O)N(C)C[C@@H]2OCc3ccccc3-c3c(n(C)c4ccccc34)C(=O)N([C@H](C)CO)C[C@@H]2C)c1`: “inactive”.
